# Assay results reported in patent publication US20220281976A1 (Alector, published 2022).
# Legend:
# [1] = biological target: T1, human CD33 Fc fusion protein (human, UniProt P20138 18-259); test: RBC adhesion to plate-bound CD33-Fc; antibody 1.0 ug/ml;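 also: red blood cells adhering to plate-coated CD33-Fc after 1 h antibody pretreatment, then 1 h at room temperature, bound cells read as peroxidase activity after lysis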
# T1 construct: also called hCD33-Fc; human CD33/Fc chimera (R&D Systems)
# [2] = biological target: T1, human CD33 Fc fusion protein; test: RBC adhesion to plate-bound CD33-Fc; antibody 0.5 ug/ml;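 also: Plate-coated CD33-Fc preincubated 1 h with antibody, then red blood cells added for 1 h at room temperature, adherent cells lysed and quantified via peroxidase activity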
# T1 sequence (P20138 18-259 limits assumed): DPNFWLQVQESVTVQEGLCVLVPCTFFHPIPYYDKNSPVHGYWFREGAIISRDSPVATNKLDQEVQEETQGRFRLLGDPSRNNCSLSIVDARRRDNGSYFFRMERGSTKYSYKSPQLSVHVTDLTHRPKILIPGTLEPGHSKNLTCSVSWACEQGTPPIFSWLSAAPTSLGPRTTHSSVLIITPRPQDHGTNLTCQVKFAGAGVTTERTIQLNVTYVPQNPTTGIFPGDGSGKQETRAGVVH
# human CD33 [3] = biological target: T2, human CD33 (human, UniProt P20138); test: flow cytometry, human primary monocytes; set-up: reference not given here;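 also: binding of anti-CD33 antibodies at 10 ug/ml to human primary monocytes, 1 h on ice, detected by PE-labelled secondary antibody, flow cytometry readout as mean fluorescence intensity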
# T2 construct: CD33 on human primary dendritic cells, macrophages, monocytes and T cells and on CHO cells expressing recombinant human CD33; also called Siglec-3; hCD33
# [4] = biological target: T3, human monomeric His tagged CD33 protein (human, UniProt P20138 18-259); test: ForteBio BLI or MSD-SET, IgG, monomeric antigen;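 also: BLI: antibodies captured on AHQ sensors, 100 nM antigen association 5 min, dissociation 5 min, 1:1 fit. MSD-SET: antigen fixed at 50 pM, antibody titrated, quadratic fit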
# T3 construct: also called hCD33-His
# human CD33 [5] = biological target: T2, human CD33; test: flow cytometry, human primary dendritic cells;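 also: binding of anti-CD33 antibodies (10 ug/ml, 1 h on ice) to human primary dendritic cells, detected with a PE-labelled secondary antibody, reported as flow cytometry MFI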
# T2 sequence (P20138 18-364): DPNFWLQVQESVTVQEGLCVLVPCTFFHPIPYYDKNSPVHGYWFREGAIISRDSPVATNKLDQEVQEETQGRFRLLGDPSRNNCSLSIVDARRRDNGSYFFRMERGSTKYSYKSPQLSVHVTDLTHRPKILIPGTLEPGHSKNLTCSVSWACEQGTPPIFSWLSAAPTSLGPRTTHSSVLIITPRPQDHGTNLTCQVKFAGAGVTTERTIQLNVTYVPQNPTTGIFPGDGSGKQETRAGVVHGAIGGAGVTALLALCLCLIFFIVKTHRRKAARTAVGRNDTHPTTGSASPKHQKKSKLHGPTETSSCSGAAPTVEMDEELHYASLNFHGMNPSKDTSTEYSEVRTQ
# human CD33 [6] = biological target: T2, human CD33; test: cell-based or functional assay
# human CD33 [7] = biological target: T2, human CD33; test: flow cytometry, human primary macrophages;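 also: binding of CD33 antibodies at 10 µg/ml to human primary macrophages, 1 h on ice, detected with PE-labelled secondary antibody by flow cytometry, reported as MFI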
# [8] = biological target: T1, human CD33 Fc fusion protein; test: ForteBio BLI or MSD-SET, IgG, avid;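 also: Anti-CD33 IgG affinity by BLI, IgG captured on AHQ sensors with antigen in solution and a one-to-one kinetic fit, or by MSD solution equilibrium titration with quadratic fit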
# human CD33 [9] = biological target: T2, human CD33; test: flow cytometry, human primary T cells;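 also: binding of anti-CD33 antibodies at 10 ug/ml to human primary T cells, 1 h on ice, detected with PE-labelled secondary antibody, read as flow cytometry MFI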
# [10] = biological target: T4, mouse CD33 Fc fusion protein (mouse, UniProt Q63994 18-240, limits assumed); test: ForteBio BLI or MSD-SET
# T4 construct: also called mCD33-Fc
# T4 sequence: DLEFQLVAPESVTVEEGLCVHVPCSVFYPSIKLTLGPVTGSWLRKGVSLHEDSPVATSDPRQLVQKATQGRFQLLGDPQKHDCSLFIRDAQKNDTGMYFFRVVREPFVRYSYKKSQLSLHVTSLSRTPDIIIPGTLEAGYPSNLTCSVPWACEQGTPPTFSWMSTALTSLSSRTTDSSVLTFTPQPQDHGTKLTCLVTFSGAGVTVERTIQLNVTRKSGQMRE
Binder,Percent RBC Binding to CD33 [1] [%],Percent RBC Binding to CD33 [2] [%],Monocyte MFI (human CD33 [3]),Kd [4] [nM],DC MFI (human CD33 [5]),"Percent CD33 Surface Expression, DC % CD33 (human CD33 [6]) [%]","Percent CD33 Surface Expression, Macrophage % CD33 (human CD33 [6]) [%]","Percent CD33 Surface Expression, Monocyte % CD33 (human CD33 [6]) [%]",Macrophage MFI (human CD33 [7]),Kd [8] [nM],T cell MFI (human CD33 [9]),binding result [10]
"C-4 (antibody, V domains shown, human IgG1) VH: [no letters for about 100 residues]QGEYARWYHGMDVWGQGTTVTVSS VL: DIVMTQSPDSLAVSLGERATINCKSSQSVLYSSNNKNYLAWYQQKPGQPPKLLIYWASTRESGVPDRFSGSGSGTDFTLTISSLQAEDVAVYYCQQDFSDPITFGGGTKVEIK",89,94.7,98,13.3,699,91.8,96.1,93.9,632,2.52,667,no binding (tested: 100 nM)
"C-2 (antibody, V domains shown, human IgG1) VH: [no letters for about 100 residues]GPRQEYGGLDLWGRGTLVTVSS VL: DIVMTQSPDSLAVSLGERATINCKSSQSVLYSSNNKNYLAWYQQKPGQPPKLLIYWASTRESGVPDRFSGSGSGTDFTLTISSLQAEDVAVYYCQQDYLSPITFGGGTKVEIK",90.4,83.1,119,26.5,601,102,105,96.3,629,4.39,974,no binding (tested: 100 nM)
"C-94 (antibody, V domains shown, human IgG1) VH: [no letters for about 100 residues]LGGSHASLDLWGRGTLVTVSS VL: DIVMTQSPDSLAVSLGERATINCKSSQSVLYSSNNKNYLAWYQQKPGQPPKLLIYWASTRESGVPDRFSGSGSGTDFTLTISSLQAEDVAVYYCQQLYSDPPTFGGGTKVEIK",94.2,81.9,585,–,46,89.5,–,82.9,435,17.5,132,no binding (tested: 100 nM)
"C-93 (antibody, V domains shown, human IgG1) VH: [no letters for about 100 residues]GGADRGYGMDVWGQGTTVTVSS VL: DIVMTQSPDSLAVSLGERATINCKSSQSVLYSSNNKNYLAWYQQKPGQPPKLLIYWASTRESGVPDRFSGSGSGTDFTLTISSLQAEDVAVYYCQQHYYHPPTFGGGTKVEIK",100,83.8,730,–,62,92.5,–,82.7,494,19.5,146,no binding (tested: 100 nM)
"C-78 (antibody, V domains shown, human IgG1) VH: [no letters for about 100 residues]HGGSPMLYYYGMDVWGQGTTVTVSS VL: DIVMTQSPDSLAVSLGERATINCKSSQSVLYSSNNKNYLAWYQQKPGQPPKLLIYWASTRESGVPDRFSGSGSGTDFTLTISRLEPEDFAVYYCQQLYRSPPTFGGGTKVEIK",83.6,66.2,711,5.92,45,67.5,–,95.4,565,0.913,217,no binding (tested: 100 nM)
